In the experiment the target is SARS-CoV-2 Wuhan-Hu-1 spike receptor-binding domain. In words: ELISA binding EC50; higher = weaker binding; ELISA of recombinant human antibody on coated antigen, from 10 µg/ml in fourfold dilutions; four-parameter fit. In general terms: In an ELISA, binding on a coated surface is turned into a signal by an enzyme label.

Positions count from the first letter of the chain named. Recombinant human monoclonal antibodies (heavy:light variable regions). ELISA EC50 on the named antigen, from 10 µg/ml down; lower = stronger. No active / inactive call.

B1: C884 (protein)
chain 1: QVQLQQWGAGLLKPSETLSLTCVVYGGSFSAYYWSWIRQPPGKGLEWIGEINHSGSTNYKSSLQSRVTISVDTSKNQFSLKLSSVTAADTAVYYCARETGTYGTFDHWGQGTLVTVSS
chain 2: EIVLTQSPGTLSLSPGERATLSCRASQSVSSTYLAWYQQKPGQAPRLLIYGASSRATGIPDRFSGSGSGTDFTLTISRLEPEDFAVYYCQQYAFSVWTFGQGTKVEI
With B1, the “ELISA binding EC50” value amounted to 4.22 ng/mL.

B2: C893 (protein)
chain 1: EVQLVQSGAEVKKPGESLKISCKGSGYYFTRQWIGWVRQMPGKGLEWMGIIYPGDSDTRYSPSFQGQVTISADKSISTAYLQWSSLKASDTAMYYCARGGWDPAEYSSSGGGGLDAFDIWGQGTMVTVSS
chain 2: EIVLTQSPATLSLSPGERATLSCRASQSVSSYLAWYQQRPGRAPRLLIYDASNRATGIPGRFSGSGSGTDFSLTISSLEPEDFAVYYCQQRSSWPLTFGQGTRLEIK
On to B2, for which the “ELISA binding EC50” value worked out at 3.73 ng/mL.

B3: C895 (protein)
chain 1: QVQLVQSGAEVKKPGSSVKVSCKASGGTFTSYAFSWVRQAPGQGLEWMGGIIPIFGTTNYAQKFQGRVTITADESTSTAYMELSSLRSEDTAVYYCARPEGCGSRTSCTPGAYYYGMDVWGQGTTVTVSS
chain 2: EIVLTQSPATLSLSPGERATLSCRASQSVGSYLAWYQQKPGQAPRLLIYDASNRATGIPARFSGSGSGTDFTLTISSLEPEDFAFYFCQQRNSWPPEYSFGQGTKLEIK
Consider B3, for which the “ELISA binding EC50” value came out at 2.21 ng/mL.

B4: C889 (protein)
chain 1: EVQLVESGGGLVQPGGSLRLSCAVSGFTVSSNYMTWVRQAPGKGLEWVSLIYSGTSAFYADSVKGRFTISRDNSKNTLYLQMSSLRVNDTAIYYCARDLRKDDGYSYGAFDYWGQGTLVTVSS
chain 2: QSALTQPASVSGSPGQSITISCSGTSSDVGAHNYVSWYQQYPGKAPKLMIFDVTDRPSGVSNRFSGSKSGNTASLTISGLQAEDEADYYCTSYTTNRSWVFGGGTKVTVL
For B4, the “ELISA binding EC50” value amounted to 4.25 ng/mL.

B5: C838 (protein)
chain 1: EVQLVESGGGLVQPGKSLRLSCTASGFTFEDYAMHWVRQAPGKGLEWVSGINWKSGSRGYADSAKGRFTISGNTAKNTLHLQMNSLRAEDTAFYYCAKAGVRNIAAAGPDLNFDFWGQGTLVTVSS
chain 2: EIVLTQSPATLSLSPGERATLSCRASQSVGTYLAWYQHKLGQAPRLLIYDATKRATGIPARFSGSGSGTDFTLTISSLEPEDFAIYYCQQRITFGQGTRLEIK
Take B5: the “ELISA binding EC50” value is 3.03 ng/mL.

B6: C897 (protein)
chain 1: QVQLVESGGGVVQPGRSLRLSCAASGFIFSHYGMHWVRQAPGKGLEWVAVILYDGSDQYYADSVKGRFTISRDNSKNTLFLEMNSLRLEDTAVYYCAKGGGQYCSHGNCYLNYFDYWGQGALVTVSS
chain 2: DIQMTQSPSSLSASVGDRVTITCQASQDIRDNLNWYQQKPGKAPQLLIYDASNLQPGVPSRFSGSGSGTHFTFTISRLQPEDIATYFCQQYANLPTTFGPGTKVDIK
For B6, the “ELISA binding EC50” value came out at 1.88 ng/mL.

B7: C879 (protein)
chain 1: QVQLQESGPGLVKPSQTLSLTCGVSGDSISSGGHFWSWVRQHPGTGLEWIAYSPFSGTTYYNPSLKSRVTLSVDTSKNQFFLSLTSVTDADTAVYFCARVKGWLRGYFDHWGQGVLVTVSS
chain 2: NFMLTQPHSVSESPGKTVTISCTASSGNIVNNYVQWYQQRPGSAPIIVIYEDAQRPSGVPDRFSGSIDTSSNSASLTISGLKTEDEADYYCQSYEIDSHVVFGGGTRLTV
As to B7, the “ELISA binding EC50” value is 4.25 ng/mL.

B8: C885 (protein)
chain 1: QVQLQESGPGLVKPSQTLSLTCAVSGDSIRSGGYYWSWVRQHPGRGLEWIGYIYFSGTTYYNPSLKSRVTISVDTSEKQFSLKLTSVTDADTAVYFCARVKGWLRGYFDYWGQGALVTVSS
chain 2: B7 chain 2 with P7S, A24G, A53T, E95D, I96S, D97G, R107K
As for B8, the “ELISA binding EC50” value came out at 7.45 ng/mL.

B9: C896 (protein)
chain 1: QVQLVESGGGVVQPGRSLKLSCAASGFTFKTYGMHWVRQAPGKGLEWVAVISYDGTNDYYADSVKGRFTVSRDNSKNTLYLQMNSPRTEDTAVYYCAKAGGPYYYDTSGSFWYFDYWGQGTLVTVSS
chain 2: DIQMTQSPSSLSASVGDRVTITCRASQTISSYLNWYQQKSGKAPELLVYDASNLESGVPSRFSGSGSGTDFTLTISSLQPEDFATYYCQQSYSFGPGTKVDIK
For the molecule B9, the “ELISA binding EC50” value came out at 4.3 ng/mL.

B10: C886 (protein)
chain 1: EVQLVESGGDLVQPGGSLRLSCAASGFSVTTNAMAWVRQAPGKGLEWISYINIGSANIQYADSVKGRFTISRDNAKNSLYLQMNSLRDEDTAVYYCARGDCTSSSCYSLDYWGQGALVTVSS
chain 2: DIQMTQSPSSLSASVGDRVSITCRASQTINTHLSWYLQKPGEAPRLLVYAASTLHSGVPSRFSGSGSGTDFTLTISSLQPEDFATFYCQQTYRFPLTFGGGTKVEIK
On to B10, for which the “ELISA binding EC50” value stood at 2.48 ng/mL.

B11: C887 (protein)
chain 1: B10 chain 1 with S28T, V29F, N32Y, A33S, A35S, I53S, Q59H, I70V, T102L
chain 2: DIQMTQSPSSLSASVGDRVTITCRASQSITSYLSWYLQKPGEAPKLLIYAASILQSGVPSRFGGNGSGTDFTLTISSLQPEDFATFYCQQTYRSPLTFGGGTKVEIK
Take B11: the “ELISA binding EC50” value is 2.53 ng/mL.

B12: C837 (protein)
chain 1: QVQLVESGGGVVQPGRSLRLSCEASRFTFRSHAMHWVRQAPGKGLEWVAVIWYDGKNEYYADSVKGRFTISRDNSKKMVYLQMNNLRAEDTAVYYCAREGIAAPDSKADAFDIWGQGTMVTVSS
chain 2: QSVLTQPPSASGTPGQRVTIPCSGGSSNIGSNTVHWYQQVPGTAPKLLVYGNNRRPAGVPDRFSGSRSGASASLAITGLQSEDEAVYYCATWDDSPNGPVFGGGTKLTVL
On to B12, for which the “ELISA binding EC50” value came to 2.03 ng/mL.

B13: C892 (protein)
chain 1: EVQLVESGGGLVKPGGSLKVSCTASGFTFTDAWMSWVRQAPGKGLEWVGRIKSRAYGGTTDYGAPVQGRFTISRDDSINTLYLQMNSLTAEDTAVYYCTSQLWLRGPGDYWGQGTLVTVSS
chain 2: NFMLTQPHSVSESPGKTVTISCTGSSGSIASNYVHWYQQRPGGAPTTVIYEDNQRPSGVPDRFSGSIDISSNSASLTISGLKTEDEGDYYCQSYDSGVNWVFGGGTKLTVL
In the case of B13, the “ELISA binding EC50” value is 2.9 ng/mL.

B14: C878 (protein)
chain 1: EVQLVESGGGLVQPGGSLRLSCSVSGFTFSNFAMHWVRQAPGKGLEFVSGVSSDGDITDYADSVKGRFTISRDNSKNTLYLQMSSLRPEDTAVYYCVKDKEHSTMVTIFDFWGQGTLVTVSS
chain 2: DIQMTQSPSSLSASVGDRVTITCRASQSISSFLNWYQQKPGKAPKLLIYAASSLQSGVPSRFSGRGSGADFTLTITSLQPEDFATYFCQQSYSSHLTFGPGTKVDIK
Take B14: the “ELISA binding EC50” value worked out at 2.88 ng/mL.

B15: C888 (protein)
chain 1: EVQLVESGGGLVQPGGSLRLSCAASGFTVSSNYMSWVRQAPGKGLEWVSVIYSGGSAYYADSVKGRFTISRDNSKNTLYLQMNSLRAEDTAVYYCARDLRDQDGYSYGAFDYWGQGTLVTVSS
chain 2: QSALTQPASVSGSPGQSITISCTGTSSDVGGYNYVSWYQQHPGKAPKLMIYDVSNRPSGVSNRFSGSKSGNTASLTISGLQAEDEADYYCSSYTSSSSWVFGGGTKLTVL
For the molecule B15, the “ELISA binding EC50” value amounted to 1.44 ng/mL.

B16: C882 (protein)
chain 1: QVQLVESGGGVVQPGRSLRLSCAASGFTFIRYNMHWVRQAPGKGLEWVAVIWYDGSNKYYADSVKGRFTISRDNSKNTLYLQMNSLRAEDTAVYYCARDPMIVVVEMDYWGQGTLVTVSS
chain 2: DVVMTQSPLSLPVTLGQPASISCNSSQSLVHTDGNTYLNWFQQRPGQSPRRLIYKVSNRDSGVPDRFSGSGSDTDFTLQISRVEADDVGVYYCMQGSHWPYTFGQGTKLEIK
With B16, the “ELISA binding EC50” value worked out at 2.9 ng/mL.

B17: C894 (protein)
chain 1: EVQLVQSGAEVKKPGESLRISCKGSGYSFTGYWISWVRQMPGKGLEWMGRIDPSDSYTNYSPSFEGHVTFSADTALSTAYLQWSSLQASDTAIYFCGRIAPPGRGSYYPTQNYMDVWGKGTTVTVSS
chain 2: EIVLTQSPGTLSLSPGERATLSCTADQSVPNSYLAWYQHKPGQAPRLLIYGASSRATGIPDRFSGSGSGIDFTLTISRLEPEDFAVYYCQQYGSLLLTFGGGTKVEIK
Turning to B17, the “ELISA binding EC50” value was found to be 16.8 ng/mL.

B18: C880 (protein)
chain 1: QVQLQQWGAGLLKPSETLSLTCAVYGGSFSDYYWSWIRQPPGKGLEWIGENNHSGKTNYNPSLENRVTISVDTSKNQFSLKLTSVTAADTAVYYCARESGSYGTFDYWGQGTLVTVSS
chain 2: EIVLTQSPGTLSLSPGERATLSCRASQSVSSAYLAWYQQKPGQAPRLLIYGASSRATGIPDRFSGSGSGTDFTLTISRLEPEDFAVYFCQQYAYTIWTFGQGTKVEIK
On to B18, for which the “ELISA binding EC50” value stood at 2.2 ng/mL.

B19: C881 (protein)
chain 1: EVQLVESGGGLIQPGGSLRLSCAVSGVAVSTNYMSWVRQAPGQGLEWVSTIYSGDTTYYSDSVKGRFTISRDNSKNTFYLQMNSLRVPDTAVYYCARLGGVFNGFNGSFDYWGQGTLVTVS
chain 2: QSALTQPASVSGSPGQSITISCIGTSSDFENYNLVSWYQQHPGKAPKVMIYEDTKRPSGVSNRFSGSKSANTASLTISGLQAEDEAEYYCCSYAGASTWVFGGGTRVTVV
Turning to B19, the “ELISA binding EC50” value amounted to 1.44 ng/mL.

The values above are taken from the supplement of paper PMC8277577.
